Source: PubChem BioAssay AID1030 (National Center for Advancing Translational Sciences (NCATS), 2008)
About 16,000 (7.3%) of roughly 220,000 compounds were called active. The shares of active, inactive and inconclusive entries below differ from those in the screen. Calls come from the whole dose curve; as a rule, active = well fitted inhibition curve with a large enough effect (not every such curve was filed as active); inconclusive = small, poorly fitted or top-dose-only effect, or another doubt; inactive = no such curve, though single readings can be large or run the other way. Potencies of inconclusive entries are left out as doubtful fits.

target: Aldehyde dehydrogenase 1A1 (Homo sapiens) (UniProt P00352); assay: qHTS Assay for Inhibitors of Aldehyde Dehydrogenase 1 (ALDH1A1); conditions: Purified ALDH1A1, NADH fluorescence, propionaldehyde substrate; series mostly up to 75.3 µM;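 for activity, negative = inhibition: plate controls were no enzyme wells and a reference inhibitor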
Potency is the fitted concentration of half-maximal effect; tags give direction and shape of the fitted curve.

Chain of UniProt P00352 (P00352 whole entry, looked up): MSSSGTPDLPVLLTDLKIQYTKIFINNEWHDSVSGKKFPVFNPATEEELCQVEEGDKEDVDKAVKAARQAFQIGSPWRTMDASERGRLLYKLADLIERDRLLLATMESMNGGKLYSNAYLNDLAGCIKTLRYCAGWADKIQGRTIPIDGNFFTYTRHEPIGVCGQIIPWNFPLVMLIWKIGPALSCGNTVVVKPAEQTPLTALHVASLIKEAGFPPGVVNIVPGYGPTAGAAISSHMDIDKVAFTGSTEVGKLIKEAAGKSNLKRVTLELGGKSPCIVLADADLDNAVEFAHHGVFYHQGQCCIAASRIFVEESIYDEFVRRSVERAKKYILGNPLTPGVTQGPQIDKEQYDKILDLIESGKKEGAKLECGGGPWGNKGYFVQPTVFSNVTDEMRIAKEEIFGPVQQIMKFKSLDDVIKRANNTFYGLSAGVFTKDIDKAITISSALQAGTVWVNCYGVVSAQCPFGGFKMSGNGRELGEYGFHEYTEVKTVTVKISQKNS

Structure (SMILES) | Potency | activity, negative = inhibition
O=C(CCl)N=c1sccn1Cc1ccc(Cl)cc1Cl | active: 28.2 µM | –
NCS(=O)(=O)O | – | inactive: 1.19% [at 13.5 µM]
CC(C)[C@H](NC(=O)c1ccco1)C(=O)OCC(=O)Nc1ccccc1OC(F)F | inactive | –
CCOc1ccc(C(NC(=O)/C=C/c2ccco2)c2ccc(OC)c(OC)c2)cc1 (stereo unspecified) | inconclusive [inhibitor, single point] | –
O=C(NC(=S)Nc1ccccc1N1CCCC1)c1ccc(-c2cccc([N+](=O)[O-])c2)o1 | active: 22.4 µM | –
CCOc1ccc2[nH]c(=O)c(CN(CCN3CCOCC3)Cc3nnnn3C(C)(C)CC)cc2c1 | inconclusive [inhibitor, partial curve] | –
Cc1sc(NC(=O)CN(Cc2ccccc2)C(=O)C(C)C)c(C(N)=O)c1C | inactive | –
COCCCNC(=O)/C(C#N)=C/c1cccc(NC(=O)c2ccccc2Cl)c1 | active: 14.1 µM | –
CCOC(=O)C1(CCCc2ccccc2)CCN(C(=O)CCOC)CC1 | active: 0.447 µM | –
Cc1ccc(S(=O)(=O)NNC(=O)c2ccncc2)cc1 | inactive | –
CCN(CC)S(=O)(=O)c1ccc(C(=O)Nc2ccc3c(c2)OCO3)cc1 | inconclusive [inhibitor, single point] | –
Cc1ccc(C(C)C)c(OCCCN(C)Cc2ccccc2)c1 | inconclusive [inhibitor, single point] | –
Fc1ccc(CNc2cnccn2)cc1 | inconclusive [inhibitor, partial curve] | –
CCSc1ccc(-c2ccco2)nn1 | inconclusive [inhibitor, partial curve] | –
N#CCCn1cc(C(=O)N2CCOCC2)c(-c2ccc3c(c2)OCCO3)n1 | inactive | –
CNc1nnc(-c2cccc(N(C)C)c2)s1 | inconclusive [inhibitor, single point] | –
Cc1nn(Cc2ccccc2)c(Cl)c1C(=O)OCC(=O)NC(=O)NC12CC3CC(CC(C3)C1)C2 | inactive | –
CC(=O)Oc1ccc(Nc2ccccc2)cc1 | inconclusive [inhibitor, single point] | –
CC(=C/c1ccccc1)/C=N/Nc1nc(N2CCCCC2)nc(N2CCCCC2)n1 | inactive | –
Cc1ccc(/C=C(/C#N)c2nc(CCN3C(=O)c4ccccc4C3=O)cs2)cc1 | inconclusive [inhibitor, single point] | –
COc1cc(C(=O)N/N=C/c2sc(N3CCOCC3)nc2-c2ccccc2)cc(OC)c1OC | inconclusive [inhibitor, single point] | –
Cc1ccc(C)c(NS(=O)(=O)c2ccc3c(c2)Cc2cc(S(=O)(=O)Nc4cc(C)ccc4C)ccc2-3)c1 | inactive | –
CC1=CC(=C2C(=O)c3ccccc3C2=O)C=C(C)N1Cc1ccco1 | active: 7.94 µM | –
CC(C)Oc1ccc(OCCCN2CCCCCC2)cc1 | inactive | –
COc1ccc(CN2CCN(C(=O)C3CCN(S(=O)(=O)c4cccs4)CC3)CC2)c(OC)c1OC | inconclusive [inhibitor, single point] | –
C=C(C#N)C(=O)OCC | active: 8.91 µM | –

Structure (SMILES) | Potency | activity, negative = inhibition
Cc1ccc2nc(SCC(=O)Nc3cc(C(F)(F)F)ccc3N3CCOCC3)[nH]c2c1 | inactive | –
O=C(Nc1cc2c(=O)n(-c3ccc(Oc4ccccc4)cc3)ccc2oc1=O)c1ccccc1 | inconclusive [inhibitor, partial curve] | –
CCn1c(CSc2nnc(-c3ccc4c(c3)OCO4)o2)nc2cc(S(=O)(=O)N(C)C)ccc21 | inconclusive [inhibitor, single point] | –
Cc1n[nH]c(C)c1CCC(=O)N/N=C/C=C/c1ccccc1 | inactive | –
CCSC1=C(C#N)C(c2cccs2)C(C(=O)OC)=C(C)N1 (stereo unspecified) | inconclusive [inhibitor, single point] | –
COc1cc(NC2c3ncccc3C(=O)N2Cc2ccco2)cc(OC)c1 (stereo unspecified) | active: 15.8 µM | –
O=C(/C=C/c1ccccc1)NCCSCc1ccccc1Cl | active: 2.24 µM | –
CC(C)OC(=O)CC(=O)CSc1nc2c(cc1C#N)CCCC2 | inconclusive [inhibitor, single point] | –
Cc1nc2sc(C(c3cccs3)N3CCC4(CC3)OCCO4)c(O)n2n1 (stereo unspecified) | inconclusive [inhibitor, single point] | –
Cc1ccc(NNC(=O)c2cc(C(C)(C)C)nn2Cc2ccccc2)cc1 | active: 15 µM | –
NS(=O)(=O)c1ccc(N=Nc2ccc(O)c(C(=O)O)c2)cc1 | inconclusive [inhibitor, single point] | –
COc1ccc(Cl)cc1N(CC(=O)Nc1ccccc1C(=O)NCc1ccco1)S(C)(=O)=O | inconclusive [inhibitor, partial curve] | –
Cc1n[nH]c(C)c1N1C(=O)c2cccc3c(N4CCCCCC4)ccc(c23)C1=O | inconclusive [inhibitor, partial curve] | –
Cc1cccc(C)c1-n1c(C)cc(/C=N/NC(=O)c2ccncc2)c1C | active: 28.2 µM | –
CCOC(=O)OCC1C=C[C@H](c2cc(-c3ccccc3)ccc2O)C(c2ccc(C(C)=O)cc2)O1 (stereo partly specified) | – | inactive: 5.85% [at 13.5 µM]
Cn1c(SCC(=O)N2CCOCC2)nc(O)cc1=O | inactive | –
O=C(c1cc2ccccc2oc1=O)N(Cc1ccccc1)C1CCS(=O)(=O)C1 (stereo unspecified) | inconclusive [inhibitor, single point] | –
c1ccc(Nc2scc(-c3ccccc3)[n+]2Cc2ccco2)cc1 | active: 10 µM | –
COc1cccc(CNC(=O)CCC2CCCN(C(=O)c3ccc(OC)c(F)c3)C2)c1 (stereo unspecified) | inconclusive [inhibitor, single point] | –
O=C(c1cn(-c2ccccc2)nc1-c1ccncc1)N1CCCCC1 | inconclusive [inhibitor, single point] | –
C=CCc1cccc2cc(C(=O)NCc3ccc(C(=O)OCC)o3)c(=O)oc12 | inconclusive [inhibitor, single point] | –
O=C(COC(=O)[C@@H]1CCCN1S(=O)(=O)c1ccc(Cl)cc1)NC12CC3CC(CC(C3)C1)C2 | inconclusive [inhibitor, single point] | –
COc1ccc(/C(O)=C2\C(=O)C(=O)N(CCN3CCOCC3)C2c2ccccc2OC)cc1 (stereo unspecified) | inactive | –
O=C(NC1CC1)c1cc(F)c(F)cc1Cl | inactive | –
CCCCN1CCC[C@@H]1CNC(=O)c1cc(C#N)c2ccccc2c1OC | inconclusive [inhibitor, single point] | –
Cn1c(SCC(=O)Nc2ccc3c(c2)oc2ccccc23)nnc1-c1ccccc1 | active: 25.1 µM | –

Structure (SMILES) | Potency | activity, negative = inhibition
CCN1C(=O)CC(C(=O)Nc2ccc(F)cc2)SC1=Nc1ccc2c(c1)OCO2 (stereo unspecified) | inconclusive [inhibitor, partial curve] | –
Cc1ccc(C(=O)/C=C2/NC(=O)CS2)cc1 | inconclusive [inhibitor, single point] | –
CCOc1ccccc1/C=C(/NC(=O)c1ccccc1)C(=O)NC(C)c1ccccc1 (stereo unspecified) | inconclusive [inhibitor, partial curve, poor fit] | –
CN(Cc1ccco1)C(=O)c1c[nH]c2ccc(S(=O)(=O)Nc3ccc4c(c3)OCCO4)cc2c1=O | active: 22.4 µM | –
CCOC(=O)c1ccc(NC(=O)C(=O)NCc2ccco2)cc1 | inactive | –
COc1ccccc1C(=O)NCCc1nc2ccccc2[nH]1 | inactive | –
COc1ccccc1C(=O)C1CCCN(C(=O)CCC(=O)c2ccccc2)C1 (stereo unspecified) | inconclusive [inhibitor, single point] | –
COC(=O)c1cc(Cl)c(NC(=O)/C=C/c2ccc(Cl)cc2Cl)cc1OC | inconclusive [inhibitor, full curve] | –
CCOC(=O)c1c(C)nc(C)c(C(=O)OCC)c1-c1ccccc1 | inconclusive [inhibitor, partial curve] | –
CCOC(=O)C1CCN(C(=O)CSC2=NCCS2)CC1 | inconclusive [inhibitor, single point] | –
CC(O)CNC(=O)C1CCN(Cc2ccc(OCc3ccccc3)cc2)CC1 (stereo unspecified) | active: 20 µM | –
O=C(c1ccccc1F)N(Cc1ccc(F)cc1)C1CCS(=O)(=O)C1 (stereo unspecified) | inconclusive [inhibitor, single point] | –
O=C(CSc1ncnc2scc(-c3ccccc3)c12)NCc1ccc2c(c1)OCO2 | inconclusive [inhibitor, single point] | –
Cc1c(C(=O)NCCSCc2cccc(C(F)(F)F)c2)cnn1-c1ccc(Cl)cc1 | inactive | –
Cc1nc2sccn2c(=O)c1Br | inactive | –
O=C(Nc1cc2c(cc1Br)OCCO2)c1ccco1 | inconclusive [inhibitor, single point] | –
O=C(CSc1ccc(Cl)cc1)c1ccco1 | active: 12.6 µM | –
Nc1nc(CN2CCN(Cc3ccccc3)CC2)nc(N2CCCc3ccccc32)n1 | inconclusive [inhibitor, single point] | –
COc1ccc(CCNC(=O)CN2CCC(C(N)=O)CC2)cc1 | inactive | –
O=C(C1CCN(CCCc2ccccc2)CC1)N1CCCCC1 | active: 14.1 µM | –
Cc1cc(=O)oc2cc(OCC(=O)N3CCCc4ccccc43)ccc12 | active: 22.4 µM | –
c1ccc2nc(-c3nc4ccccc4o3)ccc2c1 | inconclusive [inhibitor, partial curve] | –
O=C(C1=C[C@H](c2ccccc2)C[C@H](OCCCCO)O1)N1CCOCC1 | inactive | –
COc1cc(C)cc2c(-c3c(O)cc(O)c4c3C[C@H](C)N[C@@H]4C)cc(-c3cc(-c4c(O)cc(O)c5c4C[C@H](C)N[C@@H]5C)c4cc(C)cc(OC)c4c3O)c(O)c12 | inconclusive [inhibitor, single point] | –
